# Data: the supplement of paper PMC8728848
# This is one part of the list.
# B1: Epa13 (Candida glabrata) (protein)
# chain: MGSSHHHHHHSSGLVPRGSHMASDSSENGYAHGCSPSIRAKLKPGLSMEIYSYALRPTDDHCWDSAYLDPMFPRTGYLTHKLLGKAEGIIGPLNFLAKNPACIPAVSTLPLAFHFPKPFTITNFTMLLYGYLSPKKTGKYTFKLLADDLLLMNFGADNAFDCCSHDATKDNIGEYVAYSVWPGVNKNVTVYLESGIYYPLRLFFNNRDAIAQLDFAYYFNDSPIRQTDFSGMFFSIPDSVKCPANI
# Assays:
# Assay in all cases: glycan array binding signal (z-score within array); higher = stronger binding
# Conditions in all cases: glycan notation: IUPAC condensed, linker removed
# [1] = target: Neu5Ac(a2-6)Gal(b1-4)GlcNAc(b1-3)Gal(b1-4)GlcNAc(b1-3)GalNAc
# Outline: (§1)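 Glycan array data were curated from 3228 arrays in the Consortium for Functional Glycomics database and kept only where the protein sequence was available. Glycan names were converted to IUPAC-condensed notation, and columns mapping to the same glycan were averaged. The binding signal is a within-array Z-score, averaged across arrays of the same protein sequence at different concentrations or buffers and across linkers. Negative Z-scores can be read as non-binding.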
# [2] = target: Neu5Ac(a2-6)Gal(b1-4)GlcNAc(b1-3)Gal(b1-4)GlcNAc(b1-3)[Neu5Ac(a2-6)Gal(b1-4)GlcNAc(b1-3)Gal(b1-4)GlcNAc(b1-6)]GalNAc
# Outline: as §1
# [3] = target: Neu5Ac(a2-6)Gal(b1-4)GlcNAc(b1-3)Gal(b1-4)GlcNAc(b1-6)[Gal(b1-3)]GalNAc
# Outline: as §1
# [4] = target: Neu5Ac(a2-6)Gal(b1-4)GlcNAc(b1-3)Gal(b1-4)[Fuc(a1-3)]GlcNAc(b1-3)Gal(b1-4)[Fuc(a1-3)]GlcNAc
# Outline: as §1
# [5] = target: Neu5Ac(a2-6)Gal(b1-4)GlcNAc(b1-3)GalNAc
# Outline: as §1
# [6] = target: Neu5Ac(a2-6)Gal(b1-4)GlcNAc(b1-3)[Neu5Ac(a2-6)Gal(b1-4)GlcNAc(b1-6)]GalNAc
# Outline: as §1
# [7] = target: Neu5Ac(a2-6)Gal(b1-4)GlcNAc(b1-6)GalNAc
# Outline: as §1
# [8] = target: Neu5Ac(a2-6)Gal(b1-4)GlcNAc(b1-6)[Gal(b1-3)GlcNAc(b1-3)]Gal(b1-4)Glc
# Outline: as §1
# [9] = target: Neu5Ac(a2-6)Gal(b1-4)GlcNAc(b1-6)[Gal(b1-3)]GalNAc
# Outline: as §1
# [10] = target: Neu5Ac(a2-6)Gal(b1-4)GlcNAc6S
# Outline: as §1
# Neu5Ac(a2-6)GalNAc = target: Neu5Ac(a2-6)GalNAc
# Outline: as §1
# [11] = target: Neu5Ac(a2-6)GalNAc(b1-4)GlcNAc
# Outline: as §1
# [12] = target: Neu5Ac(a2-6)GalNAc(b1-4)GlcNAc6S
# Outline: as §1
# [13] = target: Neu5Ac(a2-6)GlcNAc(b1-4)GlcNAc
# Outline: as §1
# [14] = target: Neu5Ac(a2-6)GlcNAc(b1-4)GlcNAc(b1-4)GlcNAc
# Outline: as §1
# Neu5Ac(a2-8)Neu5Ac = target: Neu5Ac(a2-8)Neu5Ac
# Outline: as §1
# [15] = target: Neu5Ac(a2-8)Neu5Ac(a2-3)Gal(b1-3)GalNAc(b1-4)[Neu5Ac(a2-3)]Gal(b1-4)Glc
# Outline: as §1
# [16] = target: Neu5Ac(a2-8)Neu5Ac(a2-3)Gal(b1-3)GalNAc(b1-4)[Neu5Ac(a2-8)Neu5Ac(a2-3)]Gal(b1-4)Glc
# Outline: as §1
# [17] = target: Neu5Ac(a2-8)Neu5Ac(a2-3)Gal(b1-4)Glc
# Outline: as §1
# [18] = target: Neu5Ac(a2-8)Neu5Ac(a2-3)Gal(b1-4)GlcNAc
# Outline: as §1
# [19] = target: Neu5Ac(a2-8)Neu5Ac(a2-3)[Gal(b1-3)GalNAc(b1-4)]Gal(b1-4)Glc
# Outline: as §1
# [20] = target: Neu5Ac(a2-8)Neu5Ac(a2-3)[GalNAc(b1-4)]Gal(b1-4)Glc
# Outline: as §1
# [21] = target: Neu5Ac(a2-8)Neu5Ac(a2-8)Neu5Ac
# Outline: as §1
# [22] = target: Neu5Ac(a2-8)Neu5Ac(a2-8)Neu5Ac(a2-3)Gal(b1-4)Glc
# Outline: as §1
# [23] = target: Neu5Ac(a2-8)Neu5Ac(a2-8)Neu5Ac(a2-3)[Gal(b1-3)GalNAc(b1-4)]Gal(b1-4)Glc
# Outline: as §1
# [24] = target: Neu5Ac(a2-8)Neu5Ac(a2-8)Neu5Ac(a2-3)[GalNAc(b1-4)]Gal(b1-4)Glc
# Outline: as §1
# [25] = target: Neu5Ac(a2-8)Neu5Ac(a2-8)Neu5Ac(a2-8)Neu5Ac(a2-3)[GalNAc(b1-4)]Gal(b1-4)Glc
# Outline: as §1
# [26] = target: Neu5Ac(a2-8)Neu5Gc(a2-3)Gal(b1-4)GlcNAc
# Outline: as §1
# [27] = target: Neu5Ac(b2-6)Gal(b1-4)GlcNAc
# Outline: as §1
# Neu5Ac(b2-6)GalNAc = target: Neu5Ac(b2-6)GalNAc
# Outline: as §1
# [28] = target: Neu5Ac9Ac(a2-3)Gal(b1-3)GlcNAc
# Outline: as §1
# [29] = target: Neu5Ac9Ac(a2-3)Gal(b1-4)GlcNAc
# Outline: as §1
# [30] = target: Neu5Ac9Ac(a2-6)Gal(b1-4)GlcNAc
# Outline: as §1
# [31] = target: Neu5Gc(a2-3)Gal(b1-3)GlcNAc
# Outline: as §1
# [32] = target: Neu5Gc(a2-3)Gal(b1-3)[Fuc(a1-4)]GlcNAc
# Outline: as §1
# Neu5Gc(a2-3)Gal(b1-4)Glc = target: Neu5Gc(a2-3)Gal(b1-4)Glc
# Outline: as §1
# [33] = target: Neu5Gc(a2-3)Gal(b1-4)GlcNAc
# Outline: as §1
# [34] = target: Neu5Gc(a2-3)Gal(b1-4)GlcNAc(b1-3)Gal(b1-4)GlcNAc(b1-2)Man(a1-3)[Neu5Gc(a2-3)Gal(b1-4)GlcNAc(b1-3)Gal(b1-4)GlcNAc(b1-2)Man(a1-6)]Man(b1-4)GlcNAc(b1-4)GlcNAc
# Outline: as §1
# [35] = target: Neu5Gc(a2-3)Gal(b1-4)[Fuc(a1-3)]GlcNAc
# Outline: as §1
# [36] = target: Neu5Gc(a2-6)Gal(b1-4)GlcNAc
# Outline: as §1
# Neu5Gc(a2-6)GalNAc = target: Neu5Gc(a2-6)GalNAc
# Outline: as §1
# [37] = target: Neu5Gc(a2-8)Neu5Ac(a2-3)Gal(b1-4)GlcNAc
# Outline: as §1
# [38] = target: Neu5Gc(a2-8)Neu5Gc(a2-3)Gal(b1-4)GlcNAc
# Outline: as §1
# [39] = target: Neu5Gc(a2-8)Neu5Gc(a2-3)Gal(b1-4)GlcNAc(b1-3)Gal(b1-4)GlcNAc
# Outline: as §1
# [40] = target: Neu5Gc(a2-8)Neu5Gc(a2-6)Gal(b1-4)GlcNAc
# Outline: as §1
# [41] = target: Neu5Gc(b2-6)Gal(b1-4)GlcNAc
# Outline: as §1
binder,measurement,setting,value
B1,glycan array binding signal (z-score),[1],-0.142
same,glycan array binding signal (z-score),[2],0.154
same,glycan array binding signal (z-score),[3],-0.158
same,glycan array binding signal (z-score),[4],-0.164
same,glycan array binding signal (z-score),[5],-0.16
same,glycan array binding signal (z-score),[6],-0.47
same,glycan array binding signal (z-score),[7],0.211
same,glycan array binding signal (z-score),[8],-0.315
same,glycan array binding signal (z-score),[9],-0.381
same,glycan array binding signal (z-score),[10],-0.494
same,glycan array binding signal (z-score),Neu5Ac(a2-6)GalNAc,-0.619
same,glycan array binding signal (z-score),[11],-0.465
same,glycan array binding signal (z-score),[12],-0.173
same,glycan array binding signal (z-score),[13],-0.331
same,glycan array binding signal (z-score),[14],-0.375
same,glycan array binding signal (z-score),Neu5Ac(a2-8)Neu5Ac,0.117
same,glycan array binding signal (z-score),[15],-0.033
same,glycan array binding signal (z-score),[16],0.177
same,glycan array binding signal (z-score),[17],-0.414
same,glycan array binding signal (z-score),[18],-0.449
same,glycan array binding signal (z-score),[19],-0.07
same,glycan array binding signal (z-score),[20],-0.273
same,glycan array binding signal (z-score),[21],0.009
same,glycan array binding signal (z-score),[22],0.23
same,glycan array binding signal (z-score),[23],-0.388
same,glycan array binding signal (z-score),[24],-0.219
same,glycan array binding signal (z-score),[25],-0.021
same,glycan array binding signal (z-score),[26],-0.482
same,glycan array binding signal (z-score),[27],-0.26
same,glycan array binding signal (z-score),Neu5Ac(b2-6)GalNAc,-0.624
same,glycan array binding signal (z-score),[28],-0.424
same,glycan array binding signal (z-score),[29],-0.359
same,glycan array binding signal (z-score),[30],-0.378
same,glycan array binding signal (z-score),[31],-0.125
same,glycan array binding signal (z-score),[32],-0.37
same,glycan array binding signal (z-score),Neu5Gc(a2-3)Gal(b1-4)Glc,0.553
same,glycan array binding signal (z-score),[33],-0.188
same,glycan array binding signal (z-score),[34],-0.434
same,glycan array binding signal (z-score),[35],-0.285
same,glycan array binding signal (z-score),[36],-0.29
same,glycan array binding signal (z-score),Neu5Gc(a2-6)GalNAc,-0.571
same,glycan array binding signal (z-score),[37],0.122
same,glycan array binding signal (z-score),[38],-0.037
same,glycan array binding signal (z-score),[39],-0.46
same,glycan array binding signal (z-score),[40],-0.199
same,glycan array binding signal (z-score),[41],0.559
